# According to the supplement of paper PMC8728848:
# Some of the results follow.
# B1: CV-2L (Chromobacterium violaceum), Q7NX84 (protein)
# chain: MAQQGVFTLPARINFGVTVLVNSAATQHVEIFVDNEPRAAFSGVGTGDNNLGTKVINSGSGNVRVQITANGRQSDLVSSQLVLANKLNLAVVGSEDGTDMDYNDSIVILNWPLG
# Legend:
# Test in all cases: glycan array binding signal (z-score within array); higher = stronger binding
# Conditions in all cases: glycan notation: IUPAC condensed, linker removed
# [1] = target: Gal3S(b1-3)[Fuc(a1-4)]GlcNAc
# In short: (§1)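 The Consortium for Functional Glycomics database supplied 3228 glycan arrays, of which those lacking an available protein sequence were dropped. The binding signal, a within-array Z-score, was averaged across arrays of the same protein sequence and across linkers. Negative scores can be read as non-binding.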
# [2] = target: Gal3S(b1-4)Glc
# In short: as §1
# [3] = target: Gal3S(b1-4)Glc6S
# In short: as §1
# [4] = target: Gal3S(b1-4)GlcNAc
# In short: as §1
# [5] = target: Gal3S(b1-4)GlcNAc6S
# In short: as §1
# [6] = target: Gal3S(b1-4)[Fuc(a1-3)]Glc
# In short: as §1
# [7] = target: Gal3S(b1-4)[Fuc(a1-3)]Glc6S
# In short: as §1
# [8] = target: Gal3S4S(b1-4)GlcNAc
# In short: as §1
# [9] = target: Gal3S6S(b1-4)GlcNAc
# In short: as §1
# [10] = target: Gal3S6S(b1-4)GlcNAc6S
# In short: as §1
# [11] = target: Gal4S(b1-4)GlcNAc
# In short: as §1
# [12] = target: Gal4S6S(b1-4)GlcNAc
# In short: as §1
# [13] = target: Gal6S(b1-3)GlcNAc
# In short: as §1
# [14] = target: Gal6S(b1-3)GlcNAc6S
# In short: as §1
# [15] = target: Gal6S(b1-4)Glc
# In short: as §1
# [16] = target: Gal6S(b1-4)Glc6S
# In short: as §1
# [17] = target: Gal6S(b1-4)GlcNAc
# In short: as §1
# [18] = target: Gal6S(b1-4)GlcNAc6S
# In short: as §1
# [19] = target: GalNAc(a1-3)Gal
# In short: as §1
# [20] = target: GalNAc(a1-3)GalNAc
# In short: as §1
# [21] = target: GalNAc(a1-3)GalNAc(b1-3)Gal(a1-4)Gal(b1-4)Glc
# In short: as §1
# [22] = target: GalNAc(a1-3)GalNAc(b1-3)Gal(a1-4)Gal(b1-4)GlcNAc
# In short: as §1
# [23] = target: GalNAc(b1-3)Gal
# In short: as §1
# [24] = target: GalNAc(b1-3)Gal(a1-4)Gal(b1-4)GlcNAc
# In short: as §1
# [25] = target: GalNAc(b1-3)Gal(a1-4)Gal(b1-4)GlcNAc(b1-3)Gal(b1-4)Glc
# In short: as §1
# [26] = target: GalNAc(b1-3)Gal(a1-6)Gal(b1-4)Glc
# In short: as §1
# [27] = target: GalNAc(b1-3)GalNAc
# In short: as §1
# [28] = target: GalNAc(b1-4)Gal(b1-4)Glc
# In short: as §1
# [29] = target: GalNAc(b1-4)GlcNAc
# In short: as §1
# [30] = target: GalNAc(b1-4)GlcNAc(b1-2)Man(a1-3)[GalNAc(b1-4)GlcNAc(b1-2)Man(a1-6)]Man(b1-4)GlcNAc(b1-4)GlcNAc
# In short: as §1
# [31] = target: GalNAc(b1-6)GalNAc
# In short: as §1
# [32] = target: Glc(a1-4)Glc
# In short: as §1
# [33] = target: Glc(a1-4)Glc(a1-4)Glc(a1-4)Glc
# In short: as §1
# [34] = target: Glc(a1-6)Glc(a1-6)Glc
# In short: as §1
# [35] = target: Glc(a1-6)Glc(a1-6)Glc(a1-6)Glc
# In short: as §1
# [36] = target: Glc(b1-4)Glc
# In short: as §1
# [37] = target: Glc(b1-6)Glc
# In short: as §1
# [38] = target: GlcA(b1-3)Gal
# In short: as §1
# [39] = target: GlcA(b1-3)GlcNAc
# In short: as §1
# [40] = target: GlcA(b1-6)Gal
# In short: as §1
# [41] = target: GlcNAc(a1-3)Gal(b1-4)GlcNAc
# In short: as §1
# [42] = target: GlcNAc(a1-4)Gal(b1-3)GlcNAc
# In short: as §1
# [43] = target: GlcNAc(a1-4)Gal(b1-4)GalNAc
# In short: as §1
# [44] = target: GlcNAc(a1-4)Gal(b1-4)GlcNAc
# In short: as §1
# [45] = target: GlcNAc(a1-4)Gal(b1-4)GlcNAc(b1-3)Gal(b1-4)Glc
# In short: as §1
binder,measurement,setting,value
B1,glycan array binding signal (z-score),[1],1.1
same,glycan array binding signal (z-score),[2],-0.342
same,glycan array binding signal (z-score),[3],-0.317
same,glycan array binding signal (z-score),[4],-0.331
same,glycan array binding signal (z-score),[5],-0.325
same,glycan array binding signal (z-score),[6],0.139
same,glycan array binding signal (z-score),[7],0.416
same,glycan array binding signal (z-score),[8],-0.344
same,glycan array binding signal (z-score),[9],-0.346
same,glycan array binding signal (z-score),[10],-0.338
same,glycan array binding signal (z-score),[11],-0.355
same,glycan array binding signal (z-score),[12],-0.342
same,glycan array binding signal (z-score),[13],-0.342
same,glycan array binding signal (z-score),[14],-0.343
same,glycan array binding signal (z-score),[15],-0.346
same,glycan array binding signal (z-score),[16],-0.344
same,glycan array binding signal (z-score),[17],-0.341
same,glycan array binding signal (z-score),[18],-0.356
same,glycan array binding signal (z-score),[19],-0.347
same,glycan array binding signal (z-score),[20],-0.33
same,glycan array binding signal (z-score),[21],-0.34
same,glycan array binding signal (z-score),[22],-0.306
same,glycan array binding signal (z-score),[23],-0.331
same,glycan array binding signal (z-score),[24],-0.342
same,glycan array binding signal (z-score),[25],-0.351
same,glycan array binding signal (z-score),[26],-0.338
same,glycan array binding signal (z-score),[27],-0.349
same,glycan array binding signal (z-score),[28],-0.331
same,glycan array binding signal (z-score),[29],-0.337
same,glycan array binding signal (z-score),[30],-0.325
same,glycan array binding signal (z-score),[31],-0.323
same,glycan array binding signal (z-score),[32],-0.336
same,glycan array binding signal (z-score),[33],-0.34
same,glycan array binding signal (z-score),[34],-0.347
same,glycan array binding signal (z-score),[35],-0.34
same,glycan array binding signal (z-score),[36],-0.337
same,glycan array binding signal (z-score),[37],-0.349
same,glycan array binding signal (z-score),[38],-0.345
same,glycan array binding signal (z-score),[39],-0.347
same,glycan array binding signal (z-score),[40],-0.347
same,glycan array binding signal (z-score),[41],-0.345
same,glycan array binding signal (z-score),[42],-0.352
same,glycan array binding signal (z-score),[43],-0.344
same,glycan array binding signal (z-score),[44],-0.332
same,glycan array binding signal (z-score),[45],-0.349
